According to a collection of fitness landscapes (doi:10.1126/science.1257360):
This is one part of the list.

B1: PhoQ; a variant is named by its letters at X, in order, P23837 (parent)
chain: MKKLLRLFFPLSLRVRFLLATAAVVLVLSLAYGMVALIGYSVSFDKTTFRLLRGESNLFYTLAKWENNKLHVELPENIDKQSPTMTLIYDENGQLLWAQRDVPWLMKMIQPDWLKSNGFHEIEADVNDTSLLLSGDHSIQQQLQEVREDDDDAEMTHSVAVNVYPATSRMPKLTIVVVDTIPVELKSSYMVWSWFIYVLSANLLLVIPLLWVAAWWSLRPIEALAKEVRELEEHNRELLNPATTRELTSLVRNLNRLLKSERERYDKYRTTLTDLTHSLKTPLXXLQXXLRSLRSEKMSVSDAEPVMLEQISRISQQIGYYLHRASMRGGTLLSRELHPVAPLLDNLTSALNKVYQRKGVNISLDISPEISFVGEQNDFVEVMGNVLDNACKYCLEFVEISARQTDEHLYIVVEDDGPGIPLSKREVIFDRGQRVDTLRPGQGVGLAVAREITEQYEGKIVAGESMLGGARMEVIFGRQHSAPKDE

Variants of: B1
Test: enrichment ratio after two sorts for PhoP signalling (ratio (wild type AVST 3.29)); higher = more functional
Settings: with PhoP (E. coli)

Row | Variant | enrichment ratio
1 | YDPT | ≤ 0.25
2 | WEGY | ≤ 0.25
3 | MAAM | 2.01
4 | IKIM | ≤ 0.25
5 | PGGT | ≤ 0.25
6 | MLYI | 8.89
7 | LFEN | ≤ 0.25
8 | YMNH | ≤ 0.25
9 | IQQA | ≤ 0.25
10 | WFQY | ≤ 0.25
11 | NSMP | ≤ 0.25
12 | ESNH | ≤ 0.25
13 | QCNS | ≤ 0.25
14 | MRIL | ≤ 0.25
15 | GRWW | ≤ 0.25
16 | RYTA | ≤ 0.25
17 | KSNR | ≤ 0.25
18 | NTYV | ≤ 0.25
19 | VWPS | ≤ 0.25
20 | FATT | ≤ 0.25
21 | NPKL | ≤ 0.25
22 | KIAM | ≤ 0.25
23 | RDEH | ≤ 0.25
24 | RNDH | ≤ 0.25
25 | MMTF | ≤ 0.25

Row | Variant | enrichment ratio
26 | LQQD | ≤ 0.25
27 | VGES | ≤ 0.25
28 | IVES | ≤ 0.25
29 | FHQH | ≤ 0.25
30 | DEDH | ≤ 0.25
31 | RMSD | ≤ 0.25
32 | KAKR | ≤ 0.25
33 | YQRA | ≤ 0.25
34 | GELG | 22.4
35 | NWAF | ≤ 0.25
36 | QAFP | ≤ 0.25
37 | PALF | ≤ 0.25
38 | IHPE | ≤ 0.25
39 | LVAG | ≤ 0.25
40 | PWAW | ≤ 0.25
41 | FPPS | ≤ 0.25
42 | PYMW | ≤ 0.25
43 | KSTC | ≤ 0.25
44 | QKNC | ≤ 0.25
45 | QFAG | ≤ 0.25
46 | HLKD | ≤ 0.25
47 | WKEG | ≤ 0.25
48 | RWHC | ≤ 0.25
49 | DRRP | ≤ 0.25
50 | EHAC | ≤ 0.25

Row | Variant | enrichment ratio
51 | GGRN | ≤ 0.25
52 | SFRQ | ≤ 0.25
53 | RKQT | ≤ 0.25
54 | FCSI | ≤ 0.25
55 | RKVQ | ≤ 0.25
56 | RMLD | ≤ 0.25
57 | RIIW | ≤ 0.25
58 | GNDP | ≤ 0.25
59 | HQMF | ≤ 0.25
60 | FTRV | ≤ 0.25
61 | HWIV | ≤ 0.25
62 | YQHK | ≤ 0.25
63 | VGDN | ≤ 0.25
64 | NRIW | ≤ 0.25
65 | FNSM | ≤ 0.25
66 | NCVI | ≤ 0.25
67 | RAGQ | ≤ 0.25
68 | SMFF | ≤ 0.25
69 | HDLH | ≤ 0.25
70 | VLKT | ≤ 0.25
71 | KDIH | ≤ 0.25
72 | SQHD | ≤ 0.25
73 | LFCL | ≤ 0.25
74 | ICCH | ≤ 0.25
75 | IGVC | ≤ 0.25

Row | Variant | enrichment ratio
76 | DRYM | ≤ 0.25
77 | YQTM | ≤ 0.25
78 | RETR | ≤ 0.25
79 | AFPC | ≤ 0.25
80 | THDL | 3.68
81 | GYIL | ≤ 0.25
82 | EYHA | ≤ 0.25
83 | DFTI | ≤ 0.25
84 | FRTT | ≤ 0.25
85 | PGDR | ≤ 0.25
86 | GEHM | ≤ 0.25
87 | IINK | ≤ 0.25
88 | SSKS | ≤ 0.25
89 | INQH | ≤ 0.25
90 | LADY | ≤ 0.25
91 | YMPE | ≤ 0.25
92 | MFYH | ≤ 0.25
93 | YQYI | ≤ 0.25
94 | YHRF | ≤ 0.25
95 | DVMS | ≤ 0.25
96 | HVML | ≤ 0.25
97 | LWRA | ≤ 0.25
98 | NLFP | ≤ 0.25
99 | FNCQ | ≤ 0.25
100 | DPMI | ≤ 0.25

Row | Variant | enrichment ratio
101 | FDPS | ≤ 0.25
102 | PHRR | ≤ 0.25
103 | VPDK | ≤ 0.25
104 | YKMS | ≤ 0.25
105 | PFTA | ≤ 0.25
106 | GDNL | ≤ 0.25
107 | ADPE | ≤ 0.25
108 | PVLM | ≤ 0.25
109 | MTVH | 0.706
110 | DDML | ≤ 0.25
111 | YWAG | ≤ 0.25
112 | NYLT | ≤ 0.25
113 | KWMY | ≤ 0.25
114 | YQTN | ≤ 0.25
115 | NKAF | ≤ 0.25
116 | PMCA | ≤ 0.25
117 | EVMN | ≤ 0.25
118 | TDSY | 0.762
119 | IKET | ≤ 0.25
120 | SHAC | ≤ 0.25
121 | PYWQ | ≤ 0.25
122 | FKGV | ≤ 0.25
123 | PSKF | ≤ 0.25
124 | TGIF | ≤ 0.25
125 | LWHD | ≤ 0.25

Row | Variant | enrichment ratio
126 | TKCV | 30.6
127 | YISK | 0.435
128 | LWVC | ≤ 0.25
129 | YADN | ≤ 0.25
130 | EIYC | ≤ 0.25
131 | GFIN | ≤ 0.25
132 | DKWF | ≤ 0.25
133 | SCWP | ≤ 0.25
134 | PMIF | ≤ 0.25
135 | VKFI | ≤ 0.25
136 | GQPY | ≤ 0.25
137 | AVYP | ≤ 0.25
138 | DECI | ≤ 0.25
139 | NCIV | ≤ 0.25
140 | AHHQ | ≤ 0.25
141 | ADGV | ≤ 0.25
142 | CLLP | ≤ 0.25
143 | TTRR | ≤ 0.25
144 | MLAC | ≤ 0.25
145 | NGWL | ≤ 0.25
146 | SDQV | ≤ 0.25
147 | GCLY | 8.42
148 | RGSM | ≤ 0.25
149 | HWNT | ≤ 0.25
150 | WSSL | ≤ 0.25

Row | Variant | enrichment ratio
151 | VHHD | ≤ 0.25
152 | VSSS | ≤ 0.25
153 | NCNW | ≤ 0.25
154 | TKVH | 12.3
155 | HECH | 12.7
156 | TWSM | ≤ 0.25
157 | RWGV | ≤ 0.25
158 | DDSG | ≤ 0.25
159 | MFEI | ≤ 0.25
160 | DGPF | ≤ 0.25
161 | HAVL | ≤ 0.25
162 | FWLS | 0.265
163 | YSDK | ≤ 0.25
164 | YFCM | ≤ 0.25
165 | WCWA | ≤ 0.25
166 | LYIM | ≤ 0.25
167 | SSEP | ≤ 0.25
168 | HAKY | ≤ 0.25
169 | DCTG | ≤ 0.25
170 | TIHG | 7.05
171 | MSNM | ≤ 0.25
172 | MVQL | ≤ 0.25
173 | HPPH | ≤ 0.25
174 | YFPS | ≤ 0.25
175 | HVFT | ≤ 0.25

Row | Variant | enrichment ratio
176 | LRDF | ≤ 0.25
177 | LRKV | ≤ 0.25
178 | SDVH | 5.46
179 | AIDP | ≤ 0.25
180 | FQCK | ≤ 0.25
181 | QKRG | ≤ 0.25
182 | YGGT | ≤ 0.25
183 | ESME | ≤ 0.25
184 | KSVP | ≤ 0.25
185 | PGHQ | ≤ 0.25
186 | DVIP | ≤ 0.25
187 | ASGY | 3.18
188 | DHCQ | ≤ 0.25
189 | KHTI | ≤ 0.25
190 | HPPE | ≤ 0.25
191 | PCCV | ≤ 0.25
192 | FQED | ≤ 0.25
193 | RMPS | ≤ 0.25
194 | HNRI | ≤ 0.25
195 | LHYA | ≤ 0.25
